Results on 14 molecules are retold here after publication PMC12136788.

T1: UNK ZnF1-3 (human, UniProt Q9C0B0 31-174)
T1 sequence: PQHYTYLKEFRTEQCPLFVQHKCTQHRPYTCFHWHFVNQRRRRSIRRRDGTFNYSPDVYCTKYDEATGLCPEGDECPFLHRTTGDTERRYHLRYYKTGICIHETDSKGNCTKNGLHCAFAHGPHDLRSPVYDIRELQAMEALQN

B1: chr9:95040541:95040542:-_ENSG00000196305_ENST00000443024|hu_hu|FALSE|FALSE (ssRNA)
RNA: GGGAGUUCUACAGUCCGACGAUCAAGGAUCUCAUAGUCACUCUCCAAUUUAUAGAGGGCUGACAAUCUGGCUUCCAUUAAAAUGAGUAAUCGUCCUCUGGCAACAUCUUUAAUUUUCACAUAUUGCAUUUCUGGAUUAACACACAACAGAGGAUUGAGCAUCA
B2: chr8:104447970:104447971:+_ENSG00000164934_ENST00000297579|hu_hu|hu_hu_hu_mus_False|58_88 (ssRNA)
RNA: GGGAGUUCUACAGUCCGACGAUCAUACACUUCCCUGCUUCGGCUCUUGUCUACAGGAAAGAUUCUAAUAGACUUAUCGAAACUAGCAGACACAAAUUCCUUCCCAGUGGGAGAGUAGUCCACAUCAAGUACUGCAGACACGUGCAACAGAGGAUUGAGCAUCA
B3: chr4:95690885:95690886:+_ENSMUSG00000028572_ENSMUST00000156910|mus_mus|mus_mus_mus_hu_False|68_68 (ssRNA)
RNA: GGGAGUUCUACAGUCCGACGAUCUUUAGAAAAUGUUAAAUACCAUGCUAAAAUAUUUUCAAAGGCUAGUCUUAUUUUACCAGAAGUCACAGGCAAGCAGACACUACAAGAAUAUAUGAAAAUGAAACUCAACAAUAUAACUGUCAACAGAGGAUUGAGCAUCA
B4: chr8:104447970:104447971:+_ENSG00000164934_ENST00000297579|hu_hu|hu_hu_hu_mus_False|58_68 (ssRNA)
RNA: B2 RNA with U51C, C72U
B5: chr6:89793807:89793808:+_ENSG00000146278_ENST00000336032|hu_hu|FALSE|FALSE (ssRNA)
RNA: GGGAGUUCUACAGUCCGACGAUCGCUUCCCAUCCAGUGACUAGGAGGCUUUGGAAGAACACUAGGAGAAGGUGGAUCACUAAACUUUGCCCCAGCAUAAUUUUCCUUUUGGCUCACUUCAGUUAGAAAUGCUGAUUUCUUCAACAACAGAGGAUUGAGCAUCA
B6: 48061950_48063070_790_CDS_ENSG00000138081_ENST00000403359|human|control|control (ssRNA)
RNA: GGGAGUUCUACAGUCCGACGAUCUCUUGCAGGGUUACUGUAGAAAUGUUCAGCAAAUCCUGGCUUUACAUGUGCACCUUUAUACAACUGCUGGAAACUCUCUUUCCAGGGAUUUGGAUGUUCAUACUCUUCUGGAUUAAUCUGCAACAGAGGAUUGAGCAUCA
B7: 153061612_153061732_387_CDS_ENSMUSG00000051413_ENSMUST00000056924|mouse|control|control (ssRNA)
RNA: GGGAGUUCUACAGUCCGACGAUCGGGAAGGCUGUGAGGCCUUAGCUUCUCCCCAUUUGAAAAUGGUGUCCCCGAGAUUUCACAUUGGCACUUCACUUGACUCUCUGCCUCCCGGCCCCGAGGCCUGGGAACUAGUUUCCAGCCCAACAGAGGAUUGAGCAUCA
B8: chr17:25041749:25041750:-_ENSMUSG00000024163_ENSMUST00000117509|mus_mus|FALSE|FALSE (ssRNA)
RNA: GGGAGUUCUACAGUCCGACGAUCAGAUGGGUAGGAUCGUUUGGCCGGAGGGGGGCUAGAUGAGGAGCUGAAGAGGCGACUAAAGAACUGCCAGAUGGUGGACUUCUUCUUCUCCUGGACAGAUGGGUGUUCCCUUGAUGCUCUCAACAGAGGAUUGAGCAUCA
B9: chr1:163117127:163117128:-_ENSG00000143248_ENST00000313961|hu_mus|hu_hu_hu_mus_False|58_68 (ssRNA)
RNA: GGGAGUUCUACAGUCCGACGAUCUGCUACAAAGGAUGUAACUCAACUCACAGGGCAACUUUUGGAAGCCUGGCUAAAUUACUACUUGAUUAGCUCCUUAUAAAAUUCAGAGCGCACAAAGCGGGGCAGAGAAUCCUUCUCCAUCAACAGAGGAUUGAGCAUCA
B10: 73052251_73060362_2799_CDS_ENSMUSG00000022607_ENSMUST00000110036|mouse|control|control (ssRNA)
RNA: GGGAGUUCUACAGUCCGACGAUCCCCGUCUUCCCUGUCGAUGCUGCCUCGAGAGAGCCUCACAUCAGGUUUCAGGAAUCGCUCUUCCUUCUCCAGCCAGCGCUGGUCUUCUUCCAUUUCCUGCUGCUGUCGGAUUAGCCGCUCCAACAGAGGAUUGAGCAUCA
B11: chr8:104447970:104447971:+_ENSG00000164934_ENST00000297579|hu_hu|hu_hu_hu_mus_False|48_88 (ssRNA)
RNA: B2 RNA with G78A, A81G, A84G, U96C
B12: chr7:108143013:108143014:-_ENSG00000135241_ENST00000257694|hu_hu|motif|central (ssRNA)
RNA: GGGAGUUCUACAGUCCGACGAUCGAGAAUUCGGAUUCCUCUCCCUUUCACUGGAUCCACAUAGCCAAUUAGGGCCAAAAUUUCUCGGACUGCAGCCUGAAGAGUUUCAUCCUUAAUUUGUCUCAGUCGUAAUAAAUAUGGAAUCAACAGAGGAUUGAGCAUCA
B13: chr7:149838571:149838572:-_ENSMUSG00000048583_ENSMUST00000000033|mus_hu|FALSE|FALSE (ssRNA)
RNA: GGGAGUUCUACAGUCCGACGAUCAUGUCUGCUCAGCUACCGCCAUCUCCAAUGUGGCCAAACUCCUUCCUCACUCUGGCUGGGCCAACACACAGUAAGUAAGGUGUAUCGGGAAUGGGUGGGGUAUGGGGAGCAUCGUGGCUCCAACAGAGGAUUGAGCAUCA
B14: 29316970_29322583_805_CDS_ENSMUSG00000029767_ENSMUST00000031779|mouse|control|control (ssRNA)
RNA: GGGAGUUCUACAGUCCGACGAUCUUCCUUGUCCAUCUUCCCAUCCCGGUUCUUAUCUCGAAACUCCACGAACUGUUCUCGCUCUGUCUUCACCCACUCUGGCUCAUCAGCAUUCCCAUCAUGACUGUACAUGUCACCAAUGUACAACAGAGGAUUGAGCAUCA

Residue numbers refer to the chain shown, from its start. The list shows a part of the results.

This experiment deals with T1, UNK ZnF1-3. Kind of experiment: nsRBNS (natural sequence RNA bind-n-seq); RBNS binding buffer (assumed for nsRBNS): 25 mM Tris pH 7.5, 150 mM KCl, 3 mM MgCl2, 0.01% Triton X-100, 500 ug/ml BSA, 20 U/ml SUPERase-In, 4 C; UNK is unkempt and MSI1 is Musashi-1; names of the RNAs are library labels; protein concentration not given here; high values mean tight binding.
Molecule B1 yielded a binding signal of 0.907 enrichment R. As to B2, the binding signal was determined as 0.839 enrichment R.

In the case of B3, the binding signal turned out to be 1.46 enrichment R. As for B4, the binding signal was 0.866 enrichment R.

B5 registered a binding signal of 1.01 enrichment R.

The molecule B6 registered a binding signal of 0.457 enrichment R. B7 registered a binding signal of 0.909 enrichment R. The result for B8 reads 1.25 enrichment R; that for B9, 1.13 enrichment R; that for B10, 0.592 enrichment R. With B11 the figure was 0.907 enrichment R; with B12, 0.764 enrichment R. The result for B13 reads 0.993 enrichment R. B14 registered a binding signal of 0.688 enrichment R.
